Assay results taken from a compilation of properties of binary mixtures (doi:10.1016/j.molliq.2014.10.017).
Some of these densities may be calculated back from excess volumes.

Experiment: xn = mol fraction of the nth substance listed
Settings: 101 kPa

CCCC[n+]1ccn(C)c1.N#C[S-] + CC#N
mass density (293.15 K, x2 = 0): 1072.7 kg/m3 | mass density (293.15 K, x2 = 0.0984): 1066 kg/m3 | mass density (293.15 K, x2 = 0.1936): 1058 kg/m3 | mass density (293.15 K, x2 = 0.4068): 1033.9 kg/m3 | mass density (293.15 K, x2 = 0.5994): 998.7 kg/m3 | mass density (293.15 K, x2 = 0.6925): 973.6 kg/m3 | mass density (293.15 K, x2 = 0.8971): 878.2 kg/m3 | mass density (293.15 K, x2 = 0.9465): 839.3 kg/m3 | mass density (298.15 K, x2 = 0): 1070.3 kg/m3 | mass density (298.15 K, x2 = 0.0984): 1063.4 kg/m3 | mass density (298.15 K, x2 = 0.3061): 1043.7 kg/m3 | mass density (298.15 K, x2 = 0.4068): 1030.7 kg/m3 | mass density (298.15 K, x2 = 0.4899): 1017.5 kg/m3 | mass density (298.15 K, x2 = 0.5994): 995.2 kg/m3 | mass density (298.15 K, x2 = 0.6925): 969.9 kg/m3 | mass density (298.15 K, x2 = 0.7988): 929.5 kg/m3 | mass density (298.15 K, x2 = 0.8971): 873.7 kg/m3 | mass density (298.15 K, x2 = 0.9465): 834.5 kg/m3 | mass density (303.15 K, x2 = 0): 1067.4 kg/m3 | mass density (303.15 K, x2 = 0.0984): 1060.4 kg/m3 | mass density (303.15 K, x2 = 0.1936): 1052.3 kg/m3 | mass density (303.15 K, x2 = 0.3061): 1040.5 kg/m3 | mass density (303.15 K, x2 = 0.4068): 1027.4 kg/m3 | mass density (303.15 K, x2 = 0.4899): 1014.2 kg/m3 | mass density (303.15 K, x2 = 0.5994): 991.7 kg/m3 | mass density (303.15 K, x2 = 0.8971): 869.3 kg/m3 | mass density (303.15 K, x2 = 0.9465): 829.6 kg/m3 | mass density (308.15 K, x2 = 0): 1064.4 kg/m3 | mass density (308.15 K, x2 = 0.0984): 1057.4 kg/m3 | mass density (308.15 K, x2 = 0.1936): 1049.2 kg/m3 | mass density (308.15 K, x2 = 0.3061): 1037.4 kg/m3 | mass density (308.15 K, x2 = 0.4068): 1024.2 kg/m3 | mass density (308.15 K, x2 = 0.4899): 1010.8 kg/m3 | mass density (308.15 K, x2 = 0.5994): 988.2 kg/m3 | mass density (308.15 K, x2 = 0.6925): 962.5 kg/m3 | mass density (308.15 K, x2 = 0.7988): 921.5 kg/m3 | mass density (308.15 K, x2 = 0.8971): 864.8 kg/m3 | mass density (308.15 K, x2 = 0.9465): 824.8 kg/m3 | mass density (313.15 K, x2 = 0): 1061.5 kg/m3 | mass density (313.15 K, x2 = 0.0984): 1054.4 kg/m3 | mass density (313.15 K, x2 = 0.1936): 1046.2 kg/m3 | mass density (313.15 K, x2 = 0.3061): 1034.3 kg/m3 | mass density (313.15 K, x2 = 0.4068): 1021 kg/m3 | mass density (313.15 K, x2 = 0.4899): 1007.5 kg/m3 | mass density (313.15 K, x2 = 0.5994): 984.7 kg/m3 | mass density (313.15 K, x2 = 0.6925): 958.9 kg/m3 | mass density (313.15 K, x2 = 0.7988): 917.5 kg/m3 | mass density (313.15 K, x2 = 0.8971): 860.3 kg/m3 | mass density (313.15 K, x2 = 0.9465): 819.9 kg/m3

CCOS(=O)(=O)[O-].CC[n+]1ccn(C)c1 + CC#N
mass density (293.15 K, x2 = 0.1936): 1215.4 kg/m3 | mass density (293.15 K, x2 = 0.2906): 1200.4 kg/m3 | mass density (293.15 K, x2 = 0.397): 1179.2 kg/m3 | mass density (293.15 K, x2 = 0.4967): 1154 kg/m3 | mass density (293.15 K, x2 = 0.7953): 1020.8 kg/m3 | mass density (293.15 K, x2 = 0.9516): 863 kg/m3 | mass density (298.15 K, x2 = 0.1936): 1211.9 kg/m3 | mass density (298.15 K, x2 = 0.2906): 1196.8 kg/m3 | mass density (298.15 K, x2 = 0.397): 1175.5 kg/m3 | mass density (298.15 K, x2 = 0.4967): 1150.2 kg/m3 | mass density (298.15 K, x2 = 0.5938): 1119 kg/m3 | mass density (298.15 K, x2 = 0.7953): 1016.5 kg/m3 | mass density (298.15 K, x2 = 0.8951): 928.7 kg/m3 | mass density (298.15 K, x2 = 0.9516): 858 kg/m3 | mass density (303.15 K, x2 = 0.1936): 1208.4 kg/m3 | mass density (303.15 K, x2 = 0.2906): 1193.2 kg/m3 | mass density (303.15 K, x2 = 0.397): 1171.9 kg/m3 | mass density (303.15 K, x2 = 0.4967): 1146.5 kg/m3 | mass density (303.15 K, x2 = 0.7953): 1012.1 kg/m3 | mass density (308.15 K, x2 = 0.1936): 1204.9 kg/m3 | mass density (308.15 K, x2 = 0.2906): 1189.7 kg/m3 | mass density (308.15 K, x2 = 0.397): 1168.2 kg/m3 | mass density (308.15 K, x2 = 0.4967): 1142.7 kg/m3 | mass density (308.15 K, x2 = 0.5938): 1111.3 kg/m3 | mass density (308.15 K, x2 = 0.7001): 1065.3 kg/m3 | mass density (308.15 K, x2 = 0.7953): 1007.8 kg/m3 | mass density (308.15 K, x2 = 0.8951): 919.2 kg/m3 | mass density (308.15 K, x2 = 0.9516): 847.9 kg/m3 | mass density (313.15 K, x2 = 0): 1226.7 kg/m3 | mass density (313.15 K, x2 = 0.0934): 1215.4 kg/m3 | mass density (313.15 K, x2 = 0.1936): 1201.4 kg/m3 | mass density (313.15 K, x2 = 0.2906): 1186.1 kg/m3 | mass density (313.15 K, x2 = 0.397): 1164.6 kg/m3 | mass density (313.15 K, x2 = 0.4967): 1138.9 kg/m3 | mass density (313.15 K, x2 = 0.7001): 1061.3 kg/m3 | mass density (313.15 K, x2 = 0.7953): 1003.5 kg/m3 | mass density (313.15 K, x2 = 0.8951): 914.5 kg/m3 | mass density (313.15 K, x2 = 0.9516): 842.9 kg/m3

CC#N + CCCC[n+]1ccn(C)c1.N#C[S-]
mass density (303.15 K, x1 = 1): 771.2 kg/m3 | mass density (313.15 K, x1 = 1): 760.3 kg/m3

CC#N + CCOS(=O)(=O)[O-].CC[n+]1ccn(C)c1
mass density (298.15 K, x1 = 1): 776.7 kg/m3 | mass density (303.15 K, x1 = 1): 771.2 kg/m3 | mass density (308.15 K, x1 = 1): 765.8 kg/m3 | mass density (313.15 K, x1 = 1): 760.3 kg/m3
